# Source: PubChem BioAssay AID686979 (National Center for Advancing Translational Sciences (NCATS), 2013)
# The campaign covered roughly 420,000 compounds. About 50,000 (12%) were called active. This list was built around the results that the source calls inconclusive (neither active nor inactive); the mix of calls is not that of the screen. Calls come from the whole dose curve; as a rule, active = well fitted inhibition curve with a large enough effect; inconclusive = small, poorly fitted or top-dose-only effect; inactive = flat fitted curve, though single readings scatter. Potencies of inconclusive entries are left out as doubtful fits.
# Experiment: qHTS for Inhibitors of human tyrosyl-DNA phosphodiesterase 1 (TDP1): qHTS in cells in presence of CPT; note: nearly all actives have a fitted effect of over 55% in size
# Conditions: chicken DT40 Tdp1-/-;hTDP1 cells + 20 nM CPT, ATP luminescence, 48 h; series mostly up to 46.2 µM
# Method in brief: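 Chicken DT40 Tdp1-/- cells complemented with human TDP1, 400 cells/well, exposed to compounds plus 20 nM camptothecin for at least 48 h at 37 C; viability read as ATP content by CellTiter-Glo luminescence.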
# Potency is the fitted concentration of half-maximal effect; tags give direction and shape of the fitted curve.
row,Compound,Potency
1,O=c1[nH]c(-c2ccccn2)cc2ccccc12,inactive
2,COc1ccc(C(O)c2nc(-c3ccccc3OC)cs2)cc1 (configuration not stated),"inconclusive [inhibitor, partial curve, poor fit]"
3,O=C(N/N=C/c1ccc([N+](=O)[O-])cc1)c1ccc(COc2ccccc2-c2ccccc2)cc1,"inconclusive [inhibitor, single point]"
4,OCC[C@@H]1C[C@H](O)[C@@H](O)[C@@]2(OCCCc3ccccc32)O1,inactive
5,O=S1(=O)N=C(Nc2ccc(O)cc2)c2ccccc21,inactive
6,CN(C)c1ccc(C(I)C(I)c2ccnc3ccccc23)cc1 (configuration not stated),active: 11.2 µM
7,COc1c(Br)cc(/C=N/n2c(-c3ccccc3)n[nH]c2=S)c(O)c1Br,inactive
8,COc1ccc2ccccc2c1CNC(C)c1ccccc1 (configuration not stated),active: 7.31 µM
9,Cc1nc(N2CCN(c3ccccc3O)CC2)c2c(-c3ccccc3)csc2n1,"inconclusive [inhibitor, single point]"
10,COc1ccc(NS(=O)(=O)c2ccc3c(c2)CC(C)N3C(=O)C2CCC2)cc1OC (configuration not stated),active: 1.03 µM
11,COc1ccccc1NS(=O)(=O)c1ccc2c(c1)CCN2C(=O)CCC(=O)O,inactive
12,O=C(CNC(c1ccccc1)c1ccccc1)Nc1ccccc1Br,"inconclusive [inhibitor, partial curve]"
13,CCNC(=O)CN(C1CCCCC1)S(C)(=O)=O,inactive
14,CCOC(=O)CN(C(=O)COC(=O)C1(c2ccccc2)CC1)c1ccc(F)cc1,"inconclusive [inhibitor, single point]"
15,CSc1nn(CC(=O)Nc2ccc(C)cc2C)c(N)c1S(=O)(=O)c1ccc(Cl)cc1,"inconclusive [inhibitor, single point]"
16,C/C(=N\Nc1ccc2nncn2n1)c1ccco1,inactive
17,CC(Cc1ccc(Cl)cc1)N1CCC(n2nccc2NC(=O)C2CCCC2)CC1 (configuration not stated),"inconclusive [inhibitor, single point]"
18,Clc1ccc(/C=N/Nc2nc(Cl)nc3ccccc23)cc1,"inconclusive [inhibitor, single point]"
19,O=C(COc1ccc2c(-c3ccccc3)cc(=O)oc2c1)Nc1ccc(CCO)cc1,active: 8.2 µM
20,O=C(CCCN1C(=O)/C(=C\c2ccccc2)SC1=S)Nc1ccccc1O,"inconclusive [inhibitor, single point]"
21,CCc1ccc(-c2cc(C)no2)cc1S(=O)(=O)Nc1cc(C)ccn1,inactive
22,CCOc1cc(NC(=O)C2CCCO2)c(OCC)cc1NC(C)=O (configuration not stated),inactive
